# Laboratory results published in the supplement of paper PMC8728848.
# Some of the results follow.
# Legend:
# Assay in all cases: glycan array binding signal (z-score within array); higher = stronger binding
# Details in all cases: glycan notation: IUPAC condensed, linker removed; mutation: H59Q
# [1] = molecular target: Gal(b1-4)GlcNAc(b1-3)Gal(b1-4)GlcNAc(b1-2)Man(a1-3)[Gal(b1-4)GlcNAc(b1-3)Gal(b1-4)GlcNAc(b1-2)Man(a1-6)]Man(b1-4)GlcNAc(b1-4)[Fuc(a1-6)]GlcNAc
# In short: (§1)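 Columns mapping to the same glycan were averaged after glycan names were converted to IUPAC-condensed notation. The data come from 3228 arrays in the Consortium for Functional Glycomics database, limited to those with an available protein sequence. Binding is reported as a within-array Z-score averaged across arrays of one protein sequence and across linkers.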
# [2] = molecular target: Gal(b1-4)GlcNAc(b1-3)Gal(b1-4)GlcNAc(b1-2)[Gal(b1-4)GlcNAc(b1-3)Gal(b1-4)GlcNAc(b1-6)]Man(a1-6)[Gal(b1-4)GlcNAc(b1-3)Gal(b1-4)GlcNAc(b1-2)Man(a1-3)]Man(b1-4)GlcNAc(b1-4)GlcNAc
# In short: as §1
# [3] = molecular target: Gal(b1-4)GlcNAc(b1-3)Gal(b1-4)GlcNAc(b1-2)[Gal(b1-4)GlcNAc(b1-3)Gal(b1-4)GlcNAc(b1-6)]Man(a1-6)[Gal(b1-4)GlcNAc(b1-3)Gal(b1-4)GlcNAc(b1-2)Man(a1-3)]Man(b1-4)GlcNAc(b1-4)[Fuc(a1-6)]GlcNAc
# In short: as §1
# [4] = molecular target: Gal(b1-4)GlcNAc(b1-3)Gal(b1-4)GlcNAc(b1-3)Gal(b1-4)GlcNAc
# In short: as §1
# [5] = molecular target: Gal(b1-4)GlcNAc(b1-3)Gal(b1-4)GlcNAc(b1-3)Gal(b1-4)GlcNAc(b1-2)Man(a1-3)[Gal(b1-4)GlcNAc(b1-3)Gal(b1-4)GlcNAc(b1-3)Gal(b1-4)GlcNAc(b1-2)Man(a1-6)]Man(b1-4)GlcNAc(b1-4)GlcNAc
# In short: as §1
# [6] = molecular target: Gal(b1-4)GlcNAc(b1-3)Gal(b1-4)GlcNAc(b1-3)Gal(b1-4)GlcNAc(b1-2)Man(a1-3)[Gal(b1-4)GlcNAc(b1-3)Gal(b1-4)GlcNAc(b1-3)Gal(b1-4)GlcNAc(b1-2)Man(a1-6)]Man(b1-4)GlcNAc(b1-4)[Fuc(a1-6)]GlcNAc
# In short: as §1
# [7] = molecular target: Gal(b1-4)GlcNAc(b1-3)Gal(b1-4)GlcNAc(b1-3)Gal(b1-4)GlcNAc(b1-2)[Gal(b1-4)GlcNAc(b1-3)Gal(b1-4)GlcNAc(b1-3)Gal(b1-4)GlcNAc(b1-6)]Man(a1-6)[Gal(b1-4)GlcNAc(b1-3)Gal(b1-4)GlcNAc(b1-3)Gal(b1-4)GlcNAc(b1-2)Man(a1-3)]Man(b1-4)GlcNAc(b1-4)[Fuc(a1-6)]GlcNAc
# In short: as §1
# [8] = molecular target: Gal(b1-4)GlcNAc(b1-3)Gal(b1-4)GlcNAc(b1-3)Gal(b1-4)GlcNAc(b1-3)Gal(b1-4)GlcNAc(b1-2)Man(a1-3)[Gal(b1-4)GlcNAc(b1-3)Gal(b1-4)GlcNAc(b1-3)Gal(b1-4)GlcNAc(b1-3)Gal(b1-4)GlcNAc(b1-2)Man(a1-6)]Man(b1-4)GlcNAc(b1-4)GlcNAc
# In short: as §1
# [9] = molecular target: Gal(b1-4)GlcNAc(b1-3)Gal(b1-4)GlcNAc(b1-3)Gal(b1-4)GlcNAc(b1-3)Gal(b1-4)GlcNAc(b1-2)Man(a1-3)[Gal(b1-4)GlcNAc(b1-3)Gal(b1-4)GlcNAc(b1-3)Gal(b1-4)GlcNAc(b1-3)Gal(b1-4)GlcNAc(b1-2)Man(a1-6)]Man(b1-4)GlcNAc(b1-4)[Fuc(a1-6)]GlcNAc
# In short: as §1
# [10] = molecular target: Gal(b1-4)GlcNAc(b1-3)Gal(b1-4)GlcNAc(b1-3)Gal(b1-4)GlcNAc(b1-3)Gal(b1-4)GlcNAc(b1-2)[Gal(b1-4)GlcNAc(b1-3)Gal(b1-4)GlcNAc(b1-3)Gal(b1-4)GlcNAc(b1-3)Gal(b1-4)GlcNAc(b1-6)]Man(a1-6)[Gal(b1-4)GlcNAc(b1-3)Gal(b1-4)GlcNAc(b1-3)Gal(b1-4)GlcNAc(b1-3)Gal(b1-4)GlcNAc(b1-2)Man(a1-3)]Man(b1-4)GlcNAc(b1-4)[Fuc(a1-6)]GlcNAc
# In short: as §1
# [11] = molecular target: Gal(b1-4)GlcNAc(b1-3)Gal(b1-4)GlcNAc(b1-3)Gal(b1-4)GlcNAc(b1-3)Gal(b1-4)GlcNAc(b1-3)Gal(b1-4)GlcNAc(b1-2)Man(a1-3)[Gal(b1-4)GlcNAc(b1-3)Gal(b1-4)GlcNAc(b1-3)Gal(b1-4)GlcNAc(b1-3)Gal(b1-4)GlcNAc(b1-3)Gal(b1-4)GlcNAc(b1-2)Man(a1-6)]Man(b1-4)GlcNAc(b1-4)GlcNAc
# In short: as §1
# [12] = molecular target: Gal(b1-4)GlcNAc(b1-3)Gal(b1-4)GlcNAc(b1-3)Gal(b1-4)GlcNAc(b1-3)Gal(b1-4)GlcNAc(b1-3)Gal(b1-4)GlcNAc(b1-2)Man(a1-3)[Gal(b1-4)GlcNAc(b1-3)Gal(b1-4)GlcNAc(b1-3)Gal(b1-4)GlcNAc(b1-3)Gal(b1-4)GlcNAc(b1-3)Gal(b1-4)GlcNAc(b1-2)Man(a1-6)]Man(b1-4)GlcNAc(b1-4)[Fuc(a1-6)]GlcNAc
# In short: as §1
# [13] = molecular target: Gal(b1-4)GlcNAc(b1-3)Gal(b1-4)GlcNAc(b1-3)Gal(b1-4)GlcNAc(b1-3)Gal(b1-4)GlcNAc(b1-3)Gal(b1-4)GlcNAc(b1-2)[Gal(b1-4)GlcNAc(b1-3)Gal(b1-4)GlcNAc(b1-3)Gal(b1-4)GlcNAc(b1-3)Gal(b1-4)GlcNAc(b1-3)Gal(b1-4)GlcNAc(b1-6)]Man(a1-6)[Gal(b1-4)GlcNAc(b1-3)Gal(b1-4)GlcNAc(b1-3)Gal(b1-4)GlcNAc(b1-3)Gal(b1-4)GlcNAc(b1-3)Gal(b1-4)GlcNAc(b1-2)Man(a1-3)]Man(b1-4)GlcNAc(b1-4)[Fuc(a1-6)]GlcNAc
# In short: as §1
# [14] = molecular target: Gal(b1-4)GlcNAc(b1-3)Gal(b1-4)GlcNAc(b1-3)Gal(b1-4)GlcNAc(b1-3)Gal(b1-4)GlcNAc(b1-3)Gal(b1-4)GlcNAc(b1-3)Gal(b1-4)GlcNAc(b1-2)Man(a1-3)[Gal(b1-4)GlcNAc(b1-3)Gal(b1-4)GlcNAc(b1-3)Gal(b1-4)GlcNAc(b1-3)Gal(b1-4)GlcNAc(b1-3)Gal(b1-4)GlcNAc(b1-3)Gal(b1-4)GlcNAc(b1-2)Man(a1-6)]Man(b1-4)GlcNAc(b1-4)GlcNAc
# In short: as §1
# [15] = molecular target: Gal(b1-4)GlcNAc(b1-3)Gal(b1-4)GlcNAc(b1-3)GalNAc
# In short: as §1
# [16] = molecular target: Gal(b1-4)GlcNAc(b1-3)Gal(b1-4)GlcNAc(b1-3)[Gal(b1-4)GlcNAc(b1-3)Gal(b1-4)GlcNAc(b1-6)]GalNAc
# In short: as §1
# [17] = molecular target: Gal(b1-4)GlcNAc(b1-3)Gal(b1-4)GlcNAc(b1-6)[Gal(b1-3)]GalNAc
# In short: as §1
# [18] = molecular target: Gal(b1-4)GlcNAc(b1-3)Gal(b1-4)[Fuc(a1-3)]GlcNAc(b1-3)Gal(b1-4)[Fuc(a1-3)]GlcNAc
# In short: as §1
# [19] = molecular target: Gal(b1-4)GlcNAc(b1-3)GalNAc
# In short: as §1
# [20] = molecular target: Gal(b1-4)GlcNAc(b1-3)[Fuc(a1-3)GlcNAc(b1-6)]Gal(b1-4)Glc
# In short: as §1
# [21] = molecular target: Gal(b1-4)GlcNAc(b1-3)[Gal(b1-4)GlcNAc(b1-6)]Gal(b1-4)GlcNAc
# In short: as §1
# [22] = molecular target: Gal(b1-4)GlcNAc(b1-3)[GlcNAc(b1-6)]Gal(b1-4)GlcNAc
# In short: as §1
binder,measurement,setting,value
"rAAL-H59Q (Agrocybe aegerita), Q6WY08 (protein) MQGVNIYNISAGTSVDLAAPVTTGDIVTFFSSALNLNAGAGNPNNTTLNLFAENGAYLLQIAFRLQENVIIFNSRQPDGPWLVEQRVSDVANQFAGIDGKAMVTVFDHGDKYQVVINEKTVIQYTKQISGLTLSLSYNATEETSIFSTVVEAVTYTGLALEHHHHHH",glycan array binding signal (z-score),[1],-0.015
same,glycan array binding signal (z-score),[2],-0.088
same,glycan array binding signal (z-score),[3],-0.002
same,glycan array binding signal (z-score),[4],-0.126
same,glycan array binding signal (z-score),[5],-0.073
same,glycan array binding signal (z-score),[6],-0.075
same,glycan array binding signal (z-score),[7],-0.046
same,glycan array binding signal (z-score),[8],-0.087
same,glycan array binding signal (z-score),[9],0.057
same,glycan array binding signal (z-score),[10],0.041
same,glycan array binding signal (z-score),[11],0.018
same,glycan array binding signal (z-score),[12],-0.067
same,glycan array binding signal (z-score),[13],0.012
same,glycan array binding signal (z-score),[14],-0.085
same,glycan array binding signal (z-score),[15],-0.093
same,glycan array binding signal (z-score),[16],0.042
same,glycan array binding signal (z-score),[17],-0.05
same,glycan array binding signal (z-score),[18],-0.085
same,glycan array binding signal (z-score),[19],-0.087
same,glycan array binding signal (z-score),[20],-0.124
same,glycan array binding signal (z-score),[21],-0.086
same,glycan array binding signal (z-score),[22],-0.115
